± gives the standard error. Variants at the floor of the assay are shown more often than the library holds them.
B1: glmS ribozyme (parent)
chain: AUAAAAGCGCCAGAACUACAGAAAUGUAGUUGACGAGGAGGAGGUUUAUCGAAUUUUCGGCGGAUGCCUCCAAA

Legend:
Settings in all cases: with glucosamine-6-phosphate
glucosamine-6-phosphate [1] = variants of: B1; assay: self-cleavage kobs at 40 uM GlcN6P; higher = faster cleavage; RNA array
How it was run: (§1)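 kobs was derived by fitting per-tile medians to one- or two-exponential decays after normalising signals to baseline and to non-cleaving reference variants. Those signals came from barcoded ribozyme variants transcribed in situ by E. coli RNA polymerase on sequenced MiSeq chips, followed through a hybridised Cy3 probe at 37 °C and imaged over ~14 h. Glucosamine-6-phosphate (40 μM to 10 mM) in HEPES/KCl/Mg(OAc)2 buffer was flowed in. Weighted Michaelis–Menten fits across concentrations then gave kcat and KM.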

glucosamine-6-phosphate [2] = variants of: B1; assay: self-cleavage kobs at 2500 uM GlcN6P; higher = faster cleavage; RNA array
How it was run: as §1

glucosamine-6-phosphate [3] = variants of: B1; assay: self-cleavage kobs at 10000 uM GlcN6P; higher = faster cleavage; RNA array
How it was run: as §1

glucosamine-6-phosphate [4] = variants of: B1; assay: self-cleavage kobs at 640 uM GlcN6P; higher = faster cleavage; RNA array
How it was run: as §1

glucosamine-6-phosphate [5] = variants of: B1; assay: self-cleavage kobs at 160 uM GlcN6P; higher = faster cleavage; RNA array
How it was run: as §1

| Variant | self-cleavage kobs at 40 uM GlcN6P (glucosamine-6-phosphate [1]) [s⁻¹] | self-cleavage kobs at 2500 uM GlcN6P (glucosamine-6-phosphate [2]) [s⁻¹] | self-cleavage kobs at 10000 uM GlcN6P (glucosamine-6-phosphate [3]) [s⁻¹] | self-cleavage kobs at 640 uM GlcN6P (glucosamine-6-phosphate [4]) [s⁻¹] | self-cleavage kobs at 160 uM GlcN6P (glucosamine-6-phosphate [5]) [s⁻¹] |
| --- | --- | --- | --- | --- | --- |
| G35A G43U U46G | < 1e-05 | < 1e-05 | < 1e-05 | – | – |
| G35A G44C | < 1e-05 | < 1e-05 | < 1e-05 | < 1e-05 | < 1e-05 |
| G35A G44U A53U C71U | < 1e-05 | – | < 1e-05 | < 1e-05 | < 1e-05 |
| G35A G60C | < 1e-05 | < 1e-05 | – | – | – |
| G35A G62A | < 1e-05 | < 1e-05 | < 1e-05 | < 1e-05 | < 1e-05 |
| G35A U47G A48G G60C | < 1e-05 | < 1e-05 | – | – | – |
| G35A U49G C71A | < 1e-05 | – | – | – | – |
| G35A U56C | < 1e-05 | – | < 1e-05 | < 1e-05 | < 1e-05 |
| G35A U56C A64U | < 1e-05 | – | < 1e-05 | < 1e-05 | – |
| G35A U65G | < 1e-05 | < 1e-05 | < 1e-05 | < 1e-05 | < 1e-05 |
| G35A U69A | < 1e-05 | – | – | < 1e-05 | < 1e-05 |
| G35C A39C U49G A52C | < 1e-05 | – | – | – | – |
| G35C A39U | < 1e-05 | – | < 1e-05 | < 1e-05 | < 1e-05 |
| G35C A42G C70G | < 1e-05 | < 1e-05 | – | – | – |
| G35C A42G U49A G66C | < 1e-05 | < 1e-05 | < 1e-05 | – | – |
| G35C A52U | < 1e-05 | < 1e-05 | < 1e-05 | < 1e-05 | < 1e-05 |
| G35C A64G C67G | < 1e-05 | – | – | – | – |
| G35C C61A | < 1e-05 | < 1e-05 | < 1e-05 | < 1e-05 | < 1e-05 |
| G35C G38A G51A | < 1e-05 | – | < 1e-05 | – | – |
| G35C G38A U56A G59U | < 1e-05 | – | – | – | – |
| G35C G38C G41C | < 1e-05 | – | – | – | – |
| G35C G40A A42C U45C U47C | < 1e-05 | < 1e-05 | – | – | – |
| G35C G40U | < 1e-05 | < 1e-05 | < 1e-05 | < 1e-05 | – |

| Variant | self-cleavage kobs at 40 uM GlcN6P (glucosamine-6-phosphate [1]) [s⁻¹] | self-cleavage kobs at 2500 uM GlcN6P (glucosamine-6-phosphate [2]) [s⁻¹] | self-cleavage kobs at 10000 uM GlcN6P (glucosamine-6-phosphate [3]) [s⁻¹] | self-cleavage kobs at 640 uM GlcN6P (glucosamine-6-phosphate [4]) [s⁻¹] | self-cleavage kobs at 160 uM GlcN6P (glucosamine-6-phosphate [5]) [s⁻¹] |
| --- | --- | --- | --- | --- | --- |
| G35C G43U U46G C50U C71A | < 1e-05 | – | – | – | – |
| G35C G66C | < 1e-05 | < 1e-05 | – | < 1e-05 | < 1e-05 |
| G35C U47A | < 1e-05 | < 1e-05 | < 1e-05 | < 1e-05 | < 1e-05 |
| G35C U47C | < 1e-05 | – | < 1e-05 | – | – |
| G35C U49A | < 1e-05 | < 1e-05 | – | < 1e-05 | – |
| G35C U54C | < 1e-05 | < 1e-05 | < 1e-05 | – | < 1e-05 |
| G35C U55C C67G C68U | < 1e-05 | – | < 1e-05 | – | – |
| G35C U55G | < 1e-05 | < 1e-05 | < 1e-05 | – | – |
| G35U A36C U47A C67G | < 1e-05 | – | – | – | – |
| G35U A39C | < 1e-05 | < 1e-05 | < 1e-05 | – | < 1e-05 |
| G35U A39U A53G | < 1e-05 | – | < 1e-05 | – | – |
| G35U A39U G44A U45G | < 1e-05 | – | < 1e-05 | < 1e-05 | < 1e-05 |
| G35U A42C G62A | < 1e-05 | – | < 1e-05 | – | – |
| G35U A48U C71G | < 1e-05 | – | – | – | – |
| G35U A53U C61G C68G | 0.000579 ± 0.00022 | – | 0.000516 ± 0.0002 | – | – |
| G35U C58A C68A | < 1e-05 | < 1e-05 | < 1e-05 | < 1e-05 | – |
| G35U C61A G66U | < 1e-05 | – | < 1e-05 | – | – |
| G35U C61U U65G | < 1e-05 | – | – | – | – |
| G35U C67G C71A | < 1e-05 | – | – | – | – |
| G35U C71A | < 1e-05 | < 1e-05 | < 1e-05 | < 1e-05 | < 1e-05 |
| G35U C71G | < 1e-05 | < 1e-05 | < 1e-05 | < 1e-05 | – |
| G35U G37A | < 1e-05 | < 1e-05 | – | < 1e-05 | – |
| G35U G37C A42G | < 1e-05 | – | < 1e-05 | – | – |

| Variant | self-cleavage kobs at 40 uM GlcN6P (glucosamine-6-phosphate [1]) [s⁻¹] | self-cleavage kobs at 2500 uM GlcN6P (glucosamine-6-phosphate [2]) [s⁻¹] | self-cleavage kobs at 10000 uM GlcN6P (glucosamine-6-phosphate [3]) [s⁻¹] | self-cleavage kobs at 640 uM GlcN6P (glucosamine-6-phosphate [4]) [s⁻¹] | self-cleavage kobs at 160 uM GlcN6P (glucosamine-6-phosphate [5]) [s⁻¹] |
| --- | --- | --- | --- | --- | --- |
| G35U G38A A39C U49A U55C | < 1e-05 | < 1e-05 | < 1e-05 | – | – |
| G35U G41A | < 1e-05 | < 1e-05 | < 1e-05 | < 1e-05 | < 1e-05 |
| G35U G41C G43A | < 1e-05 | – | – | < 1e-05 | – |
| G35U G43U U54A | < 1e-05 | – | < 1e-05 | – | – |
| G35U G59U | < 1e-05 | < 1e-05 | < 1e-05 | < 1e-05 | < 1e-05 |
| G35U G62A | < 1e-05 | – | – | – | – |
| G35U G62U | < 1e-05 | < 1e-05 | < 1e-05 | < 1e-05 | – |
| G35U G63A | < 1e-05 | < 1e-05 | < 1e-05 | < 1e-05 | < 1e-05 |
| G35U G66U | < 1e-05 | < 1e-05 | < 1e-05 | < 1e-05 | < 1e-05 |
| G35U U57G C61G U69A | < 1e-05 | – | < 1e-05 | – | – |
| G35U U65C | < 1e-05 | < 1e-05 | – | < 1e-05 | < 1e-05 |
| A36C A39C A48C | < 1e-05 | – | < 1e-05 | < 1e-05 | – |
| A36C A42C | < 1e-05 | – | < 1e-05 | – | < 1e-05 |
| A36C A48C | < 1e-05 | – | < 1e-05 | < 1e-05 | < 1e-05 |
| A36C A48U A64U | < 1e-05 | – | – | – | – |
| A36C A52G G66U C70U | < 1e-05 | < 1e-05 | – | – | – |
| A36C G38U C68G | < 1e-05 | – | – | – | – |
| A36C G38U G43U C50G G66U | < 1e-05 | < 1e-05 | – | < 1e-05 | – |
| A36C G44U | < 1e-05 | < 1e-05 | < 1e-05 | < 1e-05 | < 1e-05 |
| A36C G59U | < 1e-05 | < 1e-05 | < 1e-05 | – | < 1e-05 |
| A36C G62A C67U | < 1e-05 | – | < 1e-05 | – | – |
| A36C G62C | < 1e-05 | – | – | – | < 1e-05 |
| A36C G62U | < 1e-05 | < 1e-05 | – | – | < 1e-05 |

| Variant | self-cleavage kobs at 40 uM GlcN6P (glucosamine-6-phosphate [1]) [s⁻¹] | self-cleavage kobs at 2500 uM GlcN6P (glucosamine-6-phosphate [2]) [s⁻¹] | self-cleavage kobs at 10000 uM GlcN6P (glucosamine-6-phosphate [3]) [s⁻¹] | self-cleavage kobs at 640 uM GlcN6P (glucosamine-6-phosphate [4]) [s⁻¹] | self-cleavage kobs at 160 uM GlcN6P (glucosamine-6-phosphate [5]) [s⁻¹] |
| --- | --- | --- | --- | --- | --- |
| A36C U45C U47A | < 1e-05 | < 1e-05 | < 1e-05 | < 1e-05 | – |
| A36C U46C C50U C68A | < 1e-05 | – | < 1e-05 | – | – |
| A36C U46G | < 1e-05 | – | < 1e-05 | – | – |
| A36C U54C A64U C67G | < 1e-05 | – | – | – | – |
| A36C U55C C68A C71A | < 1e-05 | < 1e-05 | – | – | – |
| A36C U57C | < 1e-05 | – | < 1e-05 | < 1e-05 | – |
| A36C U57G | < 1e-05 | < 1e-05 | < 1e-05 | < 1e-05 | < 1e-05 |
| A36C U65G C70U | < 1e-05 | – | < 1e-05 | – | – |
| A36G A39G G44C C68G | < 1e-05 | – | < 1e-05 | – | – |
| A36G A42U G44U G66A | < 1e-05 | – | < 1e-05 | – | – |
| A36G A64C | < 1e-05 | < 1e-05 | – | < 1e-05 | – |
| A36G A64G | < 1e-05 | – | – | – | < 1e-05 |
| A36G A64U | < 1e-05 | – | < 1e-05 | < 1e-05 | < 1e-05 |
| A36G C58G | < 1e-05 | < 1e-05 | < 1e-05 | – | – |
| A36G C61U | < 1e-05 | – | < 1e-05 | < 1e-05 | < 1e-05 |
| A36G G37U G41C | < 1e-05 | < 1e-05 | < 1e-05 | – | – |
| A36G G37U G41C U57C G59U A64G | < 1e-05 | – | < 1e-05 | – | – |
| A36G G38A | < 1e-05 | – | < 1e-05 | < 1e-05 | – |
| A36G G38C U55A | < 1e-05 | – | < 1e-05 | – | – |
| A36G G41U | < 1e-05 | – | < 1e-05 | < 1e-05 | < 1e-05 |

Reference: the supplement of paper PMC7125110
